In publication PMC6919601, “Identification of Plasmodium dipeptidyl aminopeptidase allosteric inhibitors by high throughput screening” (PLoS ONE, 2019):
The campaign covered roughly 110,000 compounds. About 230 (0.21%) showed an effect of 50% or more. The list shows a part of the results.

Target: DPAP1 (Plasmodium falciparum, UniProt Q8IIJ9)
Test: primary screen, percent inhibition; read by cleavage of a fluorogenic dipeptide substrate; higher = more effect of the substance
Parameters: species or system P. falciparum D10 trophozoite lysates; single well
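Note: 30 min substrate incubation versus DMSO and 10 µM JCP410 controls.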

Sequence of DPAP1 (Q8IIJ9 whole entry, looked up): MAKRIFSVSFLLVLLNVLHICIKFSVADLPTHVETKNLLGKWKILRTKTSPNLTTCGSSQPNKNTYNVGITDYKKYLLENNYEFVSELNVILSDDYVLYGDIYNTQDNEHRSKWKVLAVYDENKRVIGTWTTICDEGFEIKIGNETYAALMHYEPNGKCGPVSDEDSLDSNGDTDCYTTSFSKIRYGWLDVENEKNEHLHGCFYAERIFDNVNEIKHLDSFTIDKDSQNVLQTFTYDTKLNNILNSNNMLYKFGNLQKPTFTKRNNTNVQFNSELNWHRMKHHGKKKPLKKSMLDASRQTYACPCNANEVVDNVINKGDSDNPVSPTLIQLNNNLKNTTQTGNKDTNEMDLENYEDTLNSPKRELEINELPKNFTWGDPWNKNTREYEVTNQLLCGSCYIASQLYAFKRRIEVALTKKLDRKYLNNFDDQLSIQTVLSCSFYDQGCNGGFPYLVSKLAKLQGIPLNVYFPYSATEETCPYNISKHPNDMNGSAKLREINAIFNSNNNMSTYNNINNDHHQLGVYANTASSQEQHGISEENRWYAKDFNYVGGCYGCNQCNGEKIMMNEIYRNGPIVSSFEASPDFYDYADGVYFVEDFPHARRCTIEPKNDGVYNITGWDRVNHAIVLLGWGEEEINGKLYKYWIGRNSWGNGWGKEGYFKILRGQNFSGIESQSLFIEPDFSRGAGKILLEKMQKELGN

| SMILES | % Inhibition @ 10 uM [%] |
| --- | --- |
| Cc1onc(-c2ccccc2Cl)c1-c1nc(-c2ccc3c(c2)OCO3)no1 | -1.85 |
| CC1(C)C(C=C(Cl)Cl)C1C(=O)Nc1cccc(C(=O)O)c1 (centres unmarked) | -5.16 |
| CC(=O)NCC12CC3CC(C1)CC(C(=O)O)(C3)C2 | -3.1 |
| CCOC(=O)C1=CN(Cc2ccc(OC)cc2)C=C(C(=O)OCC)C1c1cccs1 | -3.23 |
| Cc1c(C(=O)NCCCN2CCCC2=O)oc2ccc(S(=O)(=O)N3CCCCC3)cc12 | -1.34 |
| Cc1ccc(C)c(NC(=O)CCC(=O)Nc2cc(C)ccc2C)c1 | 2.01 |
| CC1(C)CC2(CCO1)OC(=O)CC2C(=O)NCc1ccco1 (centres unmarked) | -0.386 |
| COc1ccc(C(=O)N2CCc3cc(OC)c(OC)cc3C2COc2ccccc2OC)cc1OC (centres unmarked) | -1.62 |
| COC(=O)c1cnn2c(O)c(C(C)C)c(C)nc12 | -5.8 |
| CC[C@H](NC(=O)C(Cc1c(F)cccc1F)NC(=O)c1cc(-c2ccccc2)c(-c2ccccc2)s1)C(=O)c1nc2ccccc2o1 (some centres unmarked) | -6.98 |
| CCOC(=O)C1CCN(CC(C)CCC=C(C)C)CC1 (centres unmarked) | 2.1 |
| N#C/C(=C\c1ccc(Cl)cc1Cl)c1nc(-c2ccc(Cl)c(Cl)c2)cs1 | -4.08 |
| CC1(C)CC2=Nc3ncnn3C(c3ccccc3F)C2=C(O)C1 (centres unmarked) | 0.778 |
| CC(NC(=O)Cn1ncc2c(Cl)cccc21)c1ccccc1 (centres unmarked) | -1.11 |
| Cc1ccc(Oc2cc(-n3nc(C)c(C#N)c3N)ncn2)cc1 | -6.08 |
| CN1CCc2nc3sc4c(=O)[nH]c(=O)[nH]c4c3c(-c3cccs3)c2C1 | 1.17 |
| CCOc1ccc(CC(=O)C2=C(NCC(=O)O)CC(C)(C)CC2=O)cc1OCC | -0.834 |
| O=C(Nc1nc2ccccc2s1)C1CC=CCC1C(=O)OCC(Cl)=C(Cl)Cl (centres unmarked) | -3.66 |
| O=C1C(Cl)=C(Nc2cccc(O)c2)C(=O)N1c1ccccc1Cl | -0.413 |
| c1ccc(N2CCN(Cc3cccs3)CC2)cc1 | -0.192 |
| CC1(C)CC(=O)C(=CN2CCOCC2)C(=O)C1 | -3.21 |
| O=C(COc1ccc(Cl)cc1)Nc1ccc(CN2CCOCC2)cc1 | -1.63 |
| COCCNC(=O)C(NC(=O)C1CCC(C)CC1)C(C)C (centres unmarked) | -4.86 |
| COc1ccc(OCCCCN2CCCCC2)cc1 | 3 |
| c1ccc(N[n+]2ccc3ccccc3c2)nc1 | -2.74 |
| COc1cc(CN2CCN(Cc3cccc(Cl)c3)CC2)cc(OC)c1 | 3.86 |

| SMILES | % Inhibition @ 10 uM [%] |
| --- | --- |
| COc1cc(C(=O)OCc2nc3ccccc3s2)cc(OC)c1OC | 1.76 |
| CN1CCN(C2CCCCCCC2)CC1 | -0.0908 |
| O=C(Nc1ccc(F)c(F)c1)C1CC(=O)N(c2ccc(Br)cc2)C1 (centres unmarked) | 5.63 |
| CCCOc1ccc(C2c3c(-c4ccccc4O)n[nH]c3C(=O)N2CCCOC(C)C)cc1OCC (centres unmarked) | 2.02 |
| CC(NC(=O)C1CCCN1S(=O)(=O)c1cccc2nsnc12)c1ccccc1 (centres unmarked) | -0.465 |
| O=P(O)(CN1CCCCC1)CN1CCCCC1 | -2.18 |
| CC1=C(C(=O)Nc2ccncc2)C2(CCCCC2)OC1=O | 1.55 |
| CCC(=O)Nc1nnc(S(=O)(=O)NCc2ccccc2)s1 | 0.00665 |
| CCN(CC)CCN(C)C/C(Cl)=C/c1ccccc1 | -6.62 |
| CN(C)CCC1Sc2ccccc2Oc2ccccc21 (centres unmarked) | -3.45 |
| C=CCN1C(=O)NC(=O)/C(=C/c2ccc(OCc3cccc(C)c3)c(OCC)c2)C1=O | 3.25 |
| Clc1ccc(Cn2cccc2C2=NCCO2)cc1 | -1.58 |
| CC1CCN(C(=O)CN2N=C(c3ccccc3)CCC2=O)CC1 | -1.21 |
| O=C(c1ccc(Cl)cc1Cl)C(c1cccnc1)C(O)C(Cl)(Cl)Cl (centres unmarked) | 2.48 |
| Cc1cc(C)c(C)c(OCCCCCCN2CCCCC2)c1 | -0.351 |
| CCOc1ccccc1N1CCN(Cc2cc(OC)c(O)c(OC)c2)CC1 | 2.92 |
| Cc1cc(C=C2C(=O)NC(=O)NC2=O)c(C)n1-c1ccc(Br)cc1 | 15.8 |
| CCCCN(C)C(=O)C1CCN(C(=O)c2c(C)nn(-c3ccccc3)c2-n2cccc2)CC1 | 1.8 |
| C#CCOc1ccc(Br)cc1C1C(C#N)=C(N)Oc2cc3c(cc21)OCO3 (centres unmarked) | -1.17 |
| Clc1ccc(CNc2nc3ccccc3[nH]2)cc1Cl | -5.7 |
| O=C(COc1ccccc1Cl)Nc1cc(F)ccc1F | 0.214 |
| FC(F)(F)c1cccc(N2CCN(Cc3ccc(Br)o3)CC2)c1 | -3.71 |
| Cc1cc(NC(=O)c2cc(-c3ccco3)on2)n(-c2ccccc2)n1 | -5.85 |
| Cn1c(SCc2nn[nH]n2)nc2c1c(=O)n(Cc1ccccc1Cl)c(=O)n2C | -1.72 |
| COc1ccc(OC)c(CN2CCN(Cc3ccc(OC)c(OC)c3)CC2)c1 | -3.37 |
| Cc1n[nH]c(C)c1CCCCCCOc1cccc(Cl)c1 | 4.9 |

| SMILES | % Inhibition @ 10 uM [%] |
| --- | --- |
| CC(C)Cc1ccc(C(C)C(=O)NC(C)(C)C)cc1 (centres unmarked) | 1.7 |
| O=C(O)c1ccccc1SCc1cc(=O)n2cc(Br)ccc2n1 | -4.01 |
| CCC(C)(C)c1ccc(OCC(=O)Nc2ccncc2)cc1 | -1.16 |
| COc1ccc(Cn2c(C(=O)O)c(CNCC3CCCO3)c3ccccc32)cc1 (centres unmarked) | -1.67 |
| c1ccc2c(-c3csc(-c4ccncc4)n3)c[nH]c2c1 | -0.305 |
| O=C(O)CCCn1cc(NC(=O)c2sc3ccccc3c2Cl)cn1 | 2.99 |
| O=C(O)C1CCN(C2CC(=O)N(c3cccc4ccccc34)C2=O)CC1 (centres unmarked) | 4.78 |
| CCC1CCC(N2CCN(c3ccc(F)cc3)CC2)CC1 (centres unmarked) | 4.51 |
| CCCN1CCN(CCCNC(=O)c2ccc(-n3c(C)cc4c3CCCC4)cc2)CC1 | -0.878 |
| O=S(=O)(Cc1ccccc1Cl)NC1CCCCC1 | 0.9 |
| Cc1ccc(CSCC(=O)N2CCCCC2)cc1 | -8.6 |
| CC1=C(C(=O)OCC2CCCCC2)C(c2ccccc2F)NC(=O)N1 (centres unmarked) | -4.18 |
| CC(C)(C)c1cc(CN2CCC(O)CC2)cc(C(C)(C)C)c1O | 3 |
| O=C(Cn1ncc2ccsc2c1=O)NCc1ccc(Cl)cc1 | -2.92 |
| CCOc1cc(C(=O)N2CCN(c3ncccn3)CC2)cc(OCC)c1OCC | -2.9 |
| Cc1ccc(-c2cc(C(=O)O)c3cc(Br)ccc3n2)s1 | 1.9 |
| CCC(=O)N1C(=O)NC(C)=C(C(=O)OC)C1c1ccccc1 (centres unmarked) | 1.25 |
| CN(C)c1ncnc(Cl)c1C=O | 5.1 |
| N#Cc1c(N)sc2c1CCC(c1ccccc1)C2 (centres unmarked) | 16.7 |
| CC(=O)NC12CCCC(C(=O)O)(CCC1)C2 | 6.02 |
| O=C(OCc1cccc(COC(=O)c2ccco2)n1)c1ccco1 | -1.76 |
| Cc1cccc(NC(=O)c2cccc(OC(F)F)c2)c1C | 0.163 |
| COc1ccc(C2C3=C(O)CCCC3=Nc3nc(SC)nn32)cc1 (centres unmarked) | 1.73 |
| CCN1CCCC1CNC(=O)c1cc2ccc3cccnc3c2[nH]1 (centres unmarked) | 4.44 |
| CC(C)(C)c1ccc(S(=O)(=O)c2cnc3ccc(F)cc3c2O)cc1 | -0.0115 |
| CC(C)Oc1ccc(CNC(=O)C2CCCN(S(=O)(=O)N3CCCCC3)C2)cc1 (centres unmarked) | 1.17 |

| SMILES | % Inhibition @ 10 uM [%] |
| --- | --- |
| COc1cc(NS(=O)(=O)c2ccc(C(C)(C)C)cc2)c(OC)cc1Cl | -3.95 |
| CCOc1ccc(NC(=O)CC2S/C(=N\c3ccccc3C)N(C)C2=O)cc1 (centres unmarked) | -5.67 |
| Fc1ccccc1N1CCN(Cc2ccsc2)CC1 | -6.36 |
| CC(C)CCNc1ncc2c(n1)CC(c1ccccc1Cl)CC2=O (centres unmarked) | 3.87 |
| O=C(O)c1c(CNC2CCCCCC2)c2ccccc2n1Cc1cccc(F)c1 | -4.37 |
| C1CCN(CCNC2CC3CCC2C3)CC1 (centres unmarked) | -1.81 |
| CC(c1ccccc1)N1CCC(=O)C2=C1CCC2 (centres unmarked) | 16.4 |
| COc1ccc(CN2CCN(c3ccc(Cl)cc3)CC2)c(OC)c1 | 0.605 |
| C1=C(c2ccccc2)Nc2nonc2N=C1c1ccccc1 | 6.15 |
| CNc1nc(Nc2ccc([N+](=O)[O-])cc2)nc(OCC(F)(F)F)n1 | 0.968 |
| CCCC1CCC(C2=N/C(=C\c3ccccc3)C(=O)O2)CC1 (centres unmarked) | 2.77 |
| O=C(CN1C(=O)c2ccccc2C1=O)Nc1ccccc1C(=O)N1CCCC1 | 1.49 |
| N#CC1=C(N)OC2=C(CN(Cc3ccccc3)C/C2=C\c2ccsc2)C1c1ccsc1 (centres unmarked) | -1.98 |
| O=C(C1=C(O)C(=O)N(CCN2CCOCC2)C1c1cccc(Br)c1)c1ccco1 (centres unmarked) | 4.42 |
| Cc1ccc(C(=O)/C=C/c2ccc(F)cc2)o1 | -0.128 |
| CC1(C)C=C(c2cc(Br)c(C3=CC(C)(C)NC(C)(C)C3)s2)CC(C)(C)N1 | -5.5 |
| Cc1cc(OCC(=O)O/N=C(\N)c2cccnc2)cc(C)c1Cl | -1.47 |
| CC(C)(C)c1ccc(/C=C/C(=O)NCc2cccnc2)cc1 | -1.33 |
| CCCNC1=C(N2CCCCC2)C(=O)c2ccccc2C1=O | -1.37 |
| C=CCOc1ccccc1CN1CCC(C(=O)OCC)CC1 | -1.78 |
| CCOc1ccc(C(=O)Nc2ccc(N3CCN(C)CC3)cc2)cc1 | -9.24 |
| COc1ccc(-n2nc(C(=O)O)cc2-c2ccccc2)cc1 | -6.95 |
| COC(=O)C1=C(C)N(c2ccc(OC)cc2)C(C)=C(C(=O)OC)C1c1ccc(OC)cc1 | 3.01 |
| COc1cc(OC)c(C2Nc3cccc4cccc(c34)N2)c(OC)c1 | 4.33 |
| COc1ccc2[nH]c(NCc3ccccc3)nc2c1 | -2.91 |
| O=C(O)C1=NN(c2ccccc2)C(=O)/C1=C\c1ccc(Cl)cc1 | 0.634 |
